The whole screen tested about 310,000 compounds, of which about 2,200 (0.71%) showed an effect of 50% or more. Effects have a minus sign here. This is one part of the list.

The target of the assay is human ether-à-go-go-related gene (hERG) potassium channel (human, UniProt Q12809). Put plainly: primary screen, population patch clamp on CHO cells stably expressing hERG.
Sequence of human ether-à-go-go-related gene (hERG) potassium channel (Q12809 whole entry, looked up): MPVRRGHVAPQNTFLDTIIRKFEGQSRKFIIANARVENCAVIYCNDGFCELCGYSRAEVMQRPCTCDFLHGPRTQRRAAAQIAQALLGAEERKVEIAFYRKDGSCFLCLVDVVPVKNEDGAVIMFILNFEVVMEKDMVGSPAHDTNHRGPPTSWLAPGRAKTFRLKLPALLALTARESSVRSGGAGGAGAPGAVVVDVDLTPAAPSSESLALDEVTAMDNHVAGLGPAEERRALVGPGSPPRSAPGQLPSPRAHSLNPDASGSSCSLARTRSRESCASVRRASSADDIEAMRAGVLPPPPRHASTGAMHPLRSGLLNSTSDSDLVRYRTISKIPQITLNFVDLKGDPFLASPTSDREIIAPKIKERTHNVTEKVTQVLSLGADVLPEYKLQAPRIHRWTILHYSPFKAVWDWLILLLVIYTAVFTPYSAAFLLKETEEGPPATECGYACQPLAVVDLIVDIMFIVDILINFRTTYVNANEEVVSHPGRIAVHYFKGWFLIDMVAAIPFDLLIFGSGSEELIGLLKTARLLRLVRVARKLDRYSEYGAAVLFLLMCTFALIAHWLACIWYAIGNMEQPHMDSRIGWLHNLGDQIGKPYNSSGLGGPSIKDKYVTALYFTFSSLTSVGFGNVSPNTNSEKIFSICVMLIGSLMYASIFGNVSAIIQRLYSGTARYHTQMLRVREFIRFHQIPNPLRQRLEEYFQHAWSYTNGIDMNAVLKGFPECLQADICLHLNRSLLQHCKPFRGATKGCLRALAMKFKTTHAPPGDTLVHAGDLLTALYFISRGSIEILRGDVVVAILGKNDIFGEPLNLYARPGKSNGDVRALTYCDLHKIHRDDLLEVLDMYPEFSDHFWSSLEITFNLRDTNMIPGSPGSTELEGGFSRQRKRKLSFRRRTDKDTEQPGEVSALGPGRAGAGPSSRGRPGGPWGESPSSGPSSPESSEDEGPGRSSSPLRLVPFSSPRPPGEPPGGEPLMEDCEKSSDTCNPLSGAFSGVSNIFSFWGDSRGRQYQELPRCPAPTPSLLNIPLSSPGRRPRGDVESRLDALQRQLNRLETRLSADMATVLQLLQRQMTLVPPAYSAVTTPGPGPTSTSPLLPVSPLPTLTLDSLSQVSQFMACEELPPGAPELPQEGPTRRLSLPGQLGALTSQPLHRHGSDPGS
For `CCCNC(=O)C(=O)NCCC1=CCCCC1`, the “hERG current change (%, negative = inhibition) at 1uM” value is given as 9.24%.

On to `Cc1ccc(-n2nc3c(c2NC(=O)c2c(-c4ccccc4Cl)noc2C)CS(=O)(=O)C3)c(C)c1`, for which the “hERG current change (%, negative = inhibition) at 1uM” value was determined as 10.6%. The value for `COc1ccc(C(=O)Nc2ccc(NC(=O)c3cccc(F)c3)cn2)cc1` was 14.8%. As for `CCc1ccc2nc(SCC(=O)NCC3CCCO3)c(C#N)cc2c1` (stereo not drawn), the “hERG current change (%, negative = inhibition) at 1uM” value came out at 10.8%. Under `Cc1ccc(S(=O)(=O)N2CCN(C(=O)CC3CCCC3)CC2)cc1` stands 5.57%; under `CCC(=O)c1ccc(OCc2ccccc2)c(OC)c1`, 16.7%.

`CCCCN(C(C)=O)C1CC(=O)N(c2ccc(OCCC)cc2)C1=O` (stereo not drawn): the “hERG current change (%, negative = inhibition) at 1uM” value came to 10.5%.

As to `CC(C)(C)c1ccc(C(=O)N/C(=C\c2ccco2)C(=O)Nc2ccccc2C(=O)O)cc1`, the “hERG current change (%, negative = inhibition) at 1uM” value stood at 16.5%.

In the case of `Clc1cccc(Oc2ncc(CN3CCOCC3)s2)c1`, the “hERG current change (%, negative = inhibition) at 1uM” value is 2.05%. Consider `CCOc1cc(C)c(C(C)C)cc1S(=O)(=O)N1CCOCC1`, for which the “hERG current change (%, negative = inhibition) at 1uM” value is 8.94%. Under `CCCNC(=O)c1ccc(N2CCC3(CC2)CC(c2cccc(Br)c2)=NO3)c(NC(=O)c2cccc(C)c2)c1` stands 13.9%. Under `COc1ccc2[nH]c(C)c(CCNC(=S)Nc3ccccc3C)c2c1` stands 11.7%; under `C=CCn1c(-c2sc3nc(C)cc(C)c3c2N)n[nH]c1=S`, 9.47%; under `O=C(NCC(c1cccs1)N1CCOCC1)c1cc(-c2ccccn2)nc2ccccc12` (stereo not drawn), -2.9%. For the molecule `O=C(O)CC1SC(=O)N(CC(=O)c2ccccc2)C1=O` (stereo not drawn), the “hERG current change (%, negative = inhibition) at 1uM” value came to 8.06%. For `CCc1ccc(C(=O)COC(=O)C(Cc2ccccc2)NC(=O)c2ccc(Cl)cc2)cc1` (stereo not drawn), the “hERG current change (%, negative = inhibition) at 1uM” value came to 9.37%.

On to `CC(=O)c1cccc(NC(=O)C(C)OC(=O)CNC(=O)c2ccc(C)s2)c1` (stereo not drawn), for which the “hERG current change (%, negative = inhibition) at 1uM” value worked out at 13.3%.

As to `CC(C)C[C@H](NC(=O)Nc1ccc(Oc2ccccc2)cc1)C(=O)O`, the “hERG current change (%, negative = inhibition) at 1uM” value is reported as 11.2%.

For `Cc1ccc(NC(=O)Cn2cnc3cc([N+](=O)[O-])ccc3c2=O)c(Cl)c1`, the “hERG current change (%, negative = inhibition) at 1uM” value is 10.9%. On to `Cc1ccc(C(=O)c2c(C)oc3c2C(=O)C(=O)c2ccccc2-3)cc1`, for which the “hERG current change (%, negative = inhibition) at 1uM” value turned out to be 16.9%. The value for `Br.N=C1c2ccccc2CN1c1ccc(N2CCOCC2)c(S(=O)(=O)Nc2ccc(Cl)cc2)c1` was -89.2%.

As for `CC(=O)c1cccc(NC(=O)Oc2ccccc2)c1`, the “hERG current change (%, negative = inhibition) at 1uM” value is 6%.

Turning to `COc1ccc(C(=O)Oc2ccc(/C=N/NC(=O)c3cccnc3)cc2OC)cc1`, the “hERG current change (%, negative = inhibition) at 1uM” value stood at 3.46%.

In the case of `CCn1c(=O)cc(OCC(=O)NCc2ccco2)c2ccccc21`, the “hERG current change (%, negative = inhibition) at 1uM” value amounted to 7.08%. On to `C/C(=N\NC(=O)CNC(=O)C1COc2ccccc2O1)c1ccc(Cl)cc1` (stereo not drawn), for which the “hERG current change (%, negative = inhibition) at 1uM” value came out at 3.71%. Turning to `COC(=O)c1ccc(S(=O)(=O)NCCc2ccccc2OC)n1C`, the “hERG current change (%, negative = inhibition) at 1uM” value is listed as -0.459%. Regarding `CN(c1ccccc1)S(=O)(=O)c1ccc(Cl)c(C(=O)Nc2ccc(-c3nc4ccccc4[nH]3)cc2)c1`, the “hERG current change (%, negative = inhibition) at 1uM” value is on record as 16.2%. Under `O=C(c1cccc(C(F)(F)F)c1)N1CCN(C2CCCCC2)CC1` stands -6.65%; under `CCn1c(C)nc2cc(C(=O)NNC(=O)Nc3ccc(Cl)c(Cl)c3)ccc21`, 16%.

For `Cc1ccc(-n2c(C)nn(CCOc3ccccc3)c2=O)cc1`, the “hERG current change (%, negative = inhibition) at 1uM” value is 6.78%. The value for `O=C(NCC12CC3CC(CC(C3)C1)C2)c1nn2c(c1Cl)NC(c1ccco1)CC2C(F)(F)F` (stereo not drawn) was 12.4%.

For the molecule `C=CCn1c(SCc2nc3ccccc3c(=O)[nH]2)nc2sc3c(c2c1=O)CCCC3`, the “hERG current change (%, negative = inhibition) at 1uM” value was 11.6%. On to `CCn1cc(CNC(=O)C2C3CCC(C3)C2C(=O)O)cn1` (stereo not drawn), for which the “hERG current change (%, negative = inhibition) at 1uM” value stood at 14%.

`O=C(NCc1ccco1)/C(=C\C=C\c1ccccc1)NC(=O)c1ccco1`: the “hERG current change (%, negative = inhibition) at 1uM” value was -2.52%. For `CN(C)c1cccc(C(=O)OCC(=O)NCC2CCCO2)c1` (stereo not drawn), the “hERG current change (%, negative = inhibition) at 1uM” value was 10.5%. In the case of `Cn1c(CNc2ccccc2O)nc2ccccc21`, the “hERG current change (%, negative = inhibition) at 1uM” value is listed as 5.44%. Under `Cc1ccc(Cn2c(SCC(=O)N(C)C3CCS(=O)(=O)C3)nc3ccccc3c2=O)cc1` (stereo not drawn) stands -41.9%. As for `O=C(Nc1ccccn1)c1ccc(Cl)c(S(=O)(=O)N2CCc3ccccc32)c1`, the “hERG current change (%, negative = inhibition) at 1uM” value amounted to 8.29%. `Cc1ccc(CNC(=O)C(=O)NCC2OCCN2S(=O)(=O)c2ccc(C)cc2)cc1` (stereo not drawn): the “hERG current change (%, negative = inhibition) at 1uM” value was 10.9%.

On to `CC(=O)c1cccc(NC(=O)CCCSc2ccccc2)c1`, for which the “hERG current change (%, negative = inhibition) at 1uM” value worked out at 7.62%. On to `O=C(CCCN1C(=O)/C(=C/c2cccs2)SC1=S)Nc1ccc(O)cc1`, for which the “hERG current change (%, negative = inhibition) at 1uM” value stood at 14.8%. Under `O=C(Nc1cccc(-c2cnc3ccccc3n2)c1)c1cccc(NC(=O)c2ccco2)c1` stands 11.2%; under `CCn1c(SCC(=O)Nc2ncc(C(F)(F)F)cc2Cl)nnc1-c1ccccc1`, 4.37%; under `CCn1c(SCC(=O)Nc2ccc(F)cc2)nnc1C1CC1`, 14.6%. `CCOC(=O)c1ccc(N2C(=O)CC(SCC(N)C(=O)OCC)C2=O)cc1` (stereo not drawn): the “hERG current change (%, negative = inhibition) at 1uM” value came to 1.59%.

Source of the values: paper PMC4336329 (PLoS ONE, 2015).
